Values marked as one replicate rest on one cluster of the flow cell; about a third of the high ones do not repeat.
system: ATP; test: switch fluorescence ratio, 500 uM ATP over buffer (Cy3 cluster intensity, sum of 5 cycles each) (fold (ratio)); higher = stronger signal-on switching upon ATP binding; sequences stand for … in TCGTCGGCAGCGTCAGATGTGTATAAGAGACAGTTTTTTTTTTTTTTTTTTTTTTTTT…TC; conditions: aptamer strand: ATP DNA aptamer (quencher-CACCTGGGGGAGTATTGCGGAGGAAGG + anchor), 100 nM annealed; ATP concentration: 500 uM; one replicate
Procedure, shortened: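 Exposure to 500 uM ATP lasted 15 min at 22 °C before imaging, and a selection-buffer image was taken beforehand, for Cy3-labelled switching-strand clusters on a modified Illumina MiSeq flow-cell annealed to 100 nM quencher-labelled ATP aptamer. Five buffer/ATP cycles were run with NaOH stripping and re-annealing between them. The fluorescence ratio per cluster is summed target-cycle over summed buffer-cycle Cy3 intensity, averaged per switch-domain sequence. Clusters outside 100-1000 RFU were excluded.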

**Q.** With TTCTGCTTGA as the sequence, how does the switch fluorescence ratio read?
**A.** 0.948

**Q.** Which switch fluorescence ratio does the source give for AGCGAGCACT here?
**A.** 1.01

**Q.** GACAATACGC was tested. Which switch fluorescence ratio did it give?
**A.** 2.09

**Q.** With GTGAGTGAGC as the sequence, how does the switch fluorescence ratio read?
**A.** 1.05

**Q.** How did the switch fluorescence ratio turn out when GTAAGATTTT was run?
**A.** 1.05

**Q.** For TAAGAGTCCA, which switch fluorescence ratio is on record?
**A.** 1.01

**Q.** Which switch fluorescence ratio does the source give for TACGGACAGG here?
**A.** 1.36

**Q.** GATGGCGAAC was tested. Which switch fluorescence ratio did it give?
**A.** 1.05

**Q.** Which switch fluorescence ratio does the source give for AATGCTGCAC here?
**A.** 1.08

**Q.** Which switch fluorescence ratio does the source give for TGGTCCTGCG here?
**A.** 0.998

**Q.** TGCTACCGCC was tested. Which switch fluorescence ratio did it give?
**A.** 1.09

**Q.** With CGCAACAGGA as the sequence, how does the switch fluorescence ratio read?
**A.** 1.35

**Q.** Which switch fluorescence ratio does the source give for TTATGGGTCC here?
**A.** 1

**Q.** For TTGCTCAAGT, which switch fluorescence ratio is on record?
**A.** 1.03

**Q.** How did the switch fluorescence ratio turn out when GCGCGGAGA was run?
**A.** 1.02

**Q.** How did the switch fluorescence ratio turn out when GCATCAGGCC was run?
**A.** 1.02

**Q.** How did the switch fluorescence ratio turn out when TTTGGACAA was run?
**A.** 1.06

**Q.** Which switch fluorescence ratio does the source give for AAGGCTGGAC here?
**A.** 0.988

**Q.** Which switch fluorescence ratio does the source give for CTCACGATAT here?
**A.** 1.34

**Q.** Which switch fluorescence ratio does the source give for TTCGTCTTA here?
**A.** 0.938

**Q.** TGCCCCGAGC was tested. Which switch fluorescence ratio did it give?
**A.** 1.01

**Q.** TCTTTACTTG was tested. Which switch fluorescence ratio did it give?
**A.** 1.01

**Q.** How did the switch fluorescence ratio turn out when CTTCGGTATT was run?
**A.** 1.01

**Q.** For AAACAGATAT, which switch fluorescence ratio is on record?
**A.** 1.03

**Q.** For ACATCCTGGG, which switch fluorescence ratio is on record?
**A.** 1.05

**Q.** For AACTTTCGG, which switch fluorescence ratio is on record?
**A.** 0.989

**Q.** How did the switch fluorescence ratio turn out when TCCAGGCCTA was run?
**A.** 1.01

**Q.** With GGTAGCATTA as the sequence, how does the switch fluorescence ratio read?
**A.** 1.03

**Q.** Which switch fluorescence ratio does the source give for AACGGCTTTG here?
**A.** 1.01

**Q.** How did the switch fluorescence ratio turn out when ATGGTTCTGC was run?
**A.** 1.11

**Q.** Which switch fluorescence ratio does the source give for CCAGGAATGG here?
**A.** 1.12

**Q.** For TCTGCCCGAG, which switch fluorescence ratio is on record?
**A.** 0.994

**Q.** With ACCCGTACGC as the sequence, how does the switch fluorescence ratio read?
**A.** 1.78

**Q.** For TTAGAAGAAT, which switch fluorescence ratio is on record?
**A.** 0.972

**Q.** Which switch fluorescence ratio does the source give for TCCATCCTAA here?
**A.** 1.02

**Q.** With ATGCAGTTAT as the sequence, how does the switch fluorescence ratio read?
**A.** 1

**Q.** For ATTATCAGGG, which switch fluorescence ratio is on record?
**A.** 0.972

**Q.** With GTGGCGCGGG as the sequence, how does the switch fluorescence ratio read?
**A.** 0.998

**Q.** For TCTCTTAATG, which switch fluorescence ratio is on record?
**A.** 1.02

**Q.** TATTCTTTAT was tested. Which switch fluorescence ratio did it give?
**A.** 0.998

**Q.** For CACTTTACT, which switch fluorescence ratio is on record?
**A.** 1.4

**Q.** Which switch fluorescence ratio does the source give for ACTAAACACA here?
**A.** 1.1

**Q.** For CCAGGACGGC, which switch fluorescence ratio is on record?
**A.** 0.974

**Q.** Which switch fluorescence ratio does the source give for AGGGGACTCC here?
**A.** 1.02

**Q.** For AAAGCCGAA, which switch fluorescence ratio is on record?
**A.** 0.986

**Q.** For GCGGTTTGAA, which switch fluorescence ratio is on record?
**A.** 0.976

**Q.** With GACAACCG as the sequence, how does the switch fluorescence ratio read?
**A.** 0.966

**Q.** AAAGGGGTCC was tested. Which switch fluorescence ratio did it give?
**A.** 1.04

**Q.** AAAGTGTCGC was tested. Which switch fluorescence ratio did it give?
**A.** 0.962

**Q.** TCGCGTCTCC was tested. Which switch fluorescence ratio did it give?
**A.** 1.09

**Q.** With CTGCCGGAGC as the sequence, how does the switch fluorescence ratio read?
**A.** 2.43

**Q.** Which switch fluorescence ratio does the source give for ATGAGCCATT here?
**A.** 1.02

**Q.** For TACGATCGTA, which switch fluorescence ratio is on record?
**A.** 1.02

**Q.** With TAGTTTGCGT as the sequence, how does the switch fluorescence ratio read?
**A.** 0.985

**Q.** Which switch fluorescence ratio does the source give for CTAGGGTGAC here?
**A.** 0.952

**Q.** With TTAGTTCACG as the sequence, how does the switch fluorescence ratio read?
**A.** 0.931

**Q.** CCTTCTACGT was tested. Which switch fluorescence ratio did it give?
**A.** 1.52

**Q.** With ACGCAGCGCT as the sequence, how does the switch fluorescence ratio read?
**A.** 1.23

**Q.** GGGGCCGATT was tested. Which switch fluorescence ratio did it give?
**A.** 1.01

**Q.** Which switch fluorescence ratio does the source give for GCATACCGTG here?
**A.** 1

**Q.** With TACTTGCGGT as the sequence, how does the switch fluorescence ratio read?
**A.** 1.01

**Q.** ACTACTTATT was tested. Which switch fluorescence ratio did it give?
**A.** 1.01

**Q.** With ACTATTACGT as the sequence, how does the switch fluorescence ratio read?
**A.** 1.13

**Q.** For TCCAAGTCT, which switch fluorescence ratio is on record?
**A.** 0.974

**Q.** Which switch fluorescence ratio does the source give for CAGCCGTTTG here?
**A.** 0.988

**Q.** TTTACACGGC was tested. Which switch fluorescence ratio did it give?
**A.** 1.04

**Q.** TAGTGGGGC was tested. Which switch fluorescence ratio did it give?
**A.** 0.962

**Q.** For GCCATAGCAT, which switch fluorescence ratio is on record?
**A.** 1.03

**Q.** With ACCGGTCCGA as the sequence, how does the switch fluorescence ratio read?
**A.** 1.14

**Q.** How did the switch fluorescence ratio turn out when TATGGTAGGA was run?
**A.** 0.97

**Q.** TAGAGGCGTG was tested. Which switch fluorescence ratio did it give?
**A.** 1.1

**Q.** Which switch fluorescence ratio does the source give for TGCCCGGCTG here?
**A.** 1.01

**Q.** GGGCATGTAA was tested. Which switch fluorescence ratio did it give?
**A.** 0.966

**Q.** For TGACCTATTA, which switch fluorescence ratio is on record?
**A.** 0.968

**Q.** How did the switch fluorescence ratio turn out when CCGAAGGTAT was run?
**A.** 1.1

**Q.** With ATCTGGGTG as the sequence, how does the switch fluorescence ratio read?
**A.** 1.12

**Q.** Which switch fluorescence ratio does the source give for TGCTAGACCG here?
**A.** 1.04

**Q.** With GATACTGAG as the sequence, how does the switch fluorescence ratio read?
**A.** 1.06

**Q.** CGGTGTCACG was tested. Which switch fluorescence ratio did it give?
**A.** 0.944

**Q.** How did the switch fluorescence ratio turn out when TCGTGTTAC was run?
**A.** 1.32

**Q.** How did the switch fluorescence ratio turn out when TGATGGAGCG was run?
**A.** 0.986

**Q.** How did the switch fluorescence ratio turn out when GGCCGCACGT was run?
**A.** 1.05

**Q.** With GGAAGTTTAG as the sequence, how does the switch fluorescence ratio read?
**A.** 1.01

**Q.** How did the switch fluorescence ratio turn out when ACTATGCTCA was run?
**A.** 1.04

**Q.** For TGTACCGGGG, which switch fluorescence ratio is on record?
**A.** 1.11

Source: the supplement of paper PMC10126150
